# ± gives the standard deviation of the averaged measurements. The list shows a part of the results.
# Tested on: PfAP2-EXP AP2 domain (GST-tagged)
# Test: gcPBM binding intensity (ln(normalized median fluorescence intensity)); higher = stronger DNA binding
# In short: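 An Agilent 4 × 180k array of primer-extended double-stranded 36-bp intergenic genomic probes, with negative controls, was incubated for 1 h with GST-tagged P. falciparum DNA-binding domains expressed in E. coli. Alexa488 anti-GST antibody detected bound protein, scanned at 488 nm. Binding intensity is the highest Masliner-normalised natural-log median intensity across replicate spots of either probe orientation.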
row,Sequence,gcPBM binding intensity (ln)
1,ATTCTATATACACGCACACACACTTATATATATATA [CACACA_site3322],10 ± 0.28
2,TTATTATTATATGAATGTACTTAAAAATACATTTTG [XGTACX_site2959],8.19 ± 0.33
3,CCCTTTTCTAAATATTGTACGTATAAATTATATTAC [XGTACX_site7676],8.96 ± 0.18
4,AAAAAGAAAAAACGAAGTACAATTATAAGATTATAT [XGTACX_site410],8.81 ± 0.56
5,TTGTTCTTTTTTTTTTTATTTTTTAATTTGAAAAGA [CACACA_negctrl_site209],8.43 ± 0.52
6,GTACAGATAAATATTACACACATTTTCATTTTTAAC [CACACA_site5140],8.58 ± 0.34
7,TATGAAAAATATCTTTGTACTTAGAAATATATACAC [XGTACX_site5393],8.38 ± 0.26
8,TATGTGCCAAGACACACACACATATTTATATTTATA [CACACA_site6360],8.54 ± 0.36
9,ATATTTATGTAATGTTTGATTTTTTTTTTATGTGTG [CACACA_negctrl_site1422],8.29 ± 0.41
10,ACATATACATACATATGTACATATACATAAATATAT [XGTACX_site1285],8.59 ± 0.35
11,CTATACAATAAAAATTGTACATACATATATGTTATA [XGTACX_site5309],8.37 ± 0.37
12,AATTTTTCTTTTTTTTGTACAGAATATATATTTTAT [XGTACX_site1419],8.71 ± 0.42
13,ATAATATGTTATTAAGTGCATATTAATTATTATTAT,8.485 ± 0.049
14,TATATATATCTTTTGGTGCATATTTCGAATATATGT,9.01 ± 0.12
15,TCGTTATCCATCTTCACACATATATATAGTAATATA [CACACA_site5492],9.03 ± 0.51
16,TATATATTTACATATTGTACAATATAAAAATAATTA [XGTACX_site19],8.34 ± 0.29
17,AAAAAAAAAATTGAAAGTACACAAATGGGGTATTAT [XGTACX_site3960],8.75 ± 0.35
18,TACTGTTTAAAATATACACACATAATCAAAAAAAAA [CACACA_site2510],8.37 ± 0.55
19,AATAAGCAGAAACACACACACAAAAAAAAAAAAAAA [CACACA_site719],8.07 ± 0.57
20,TATGTATAAATATTAACACACAAAAAAAAAAAAAAA [CACACA_site6938],8.28 ± 0.43
21,GTTTGATAACACCTACAAACTCTTTTTTTTTTTTTT [CACACA_negctrl_site1134],8.41 ± 0.53
22,ATATAAACAAAGCAGTGCACGTAAACAAAACATATA [CACACA_negctrl_site1076],9.51 ± 0.3

row,Sequence,gcPBM binding intensity (ln)
1,TACGAAAGGTAATATTGTACATTACAAAATTTTATA [XGTACX_site5512],8.43 ± 0.36
2,AAATTTATAAATTAAAGTACATATTTCTTGAATATT [XGTACX_site859],8.34 ± 0.48
3,TATAGATACACTTTGTGTACATAAAAATTGTATTAA [XGTACX_site7137],8.32 ± 0.26
4,TATTAAATTATATAGACACACATTATGTATATATAT [CACACA_site345],8.41 ± 0.29
5,AAATGAAGATTTAAATGTACGAGAGGGTATACAAAT [XGTACX_site5075],9.04 ± 0.48
6,CATAATATTAAATCAGTGCAAATATACAGAATAAAT [GTGCAC_site9786],9.02 ± 0.26
7,GACTTCTCCATATACACACACCAACAAATATAAAAA [CACACA_site7331],8.82 ± 0.46
8,ATATAATTTAATTTCTGTACATAAGAGAAAAAACAA [XGTACX_site4865],8.88 ± 0.45
9,AACATATACTGTTTATGTACACATTGTTATATTAAT [XGTACX_site4276],8.65 ± 0.39
10,TTATGCAAAAATAAATCAATATGTTGATATGTAAAT [GTGCAC_negctrl_site128],8.44 ± 0.28
11,TACATTTTATGCATTTGTACACAAATAAATAAATAA [XGTACX_site2652],8.37 ± 0.37
12,TTTTTTTTTTTTTATACACACATTAAAATAAAAAAG [CACACA_site3946],8.35 ± 0.44
13,AAAGAAAAAAAAAAAACACACAAAAAAAATCAAAAT [CACACA_site2871],8.44 ± 0.7
14,CTCTTCCTTAATTTTTGTACTTAAAATTTTTTTTTT [XGTACX_site1628],8.9 ± 0.4
15,ATATCAATTTTTGGTGGTACGTAGGAAGTTTCAGAA [XGTACX_site6881],8.91 ± 0.43
16,ACTTTAAAAAGATTCACACAAAATATATAAAAATAT [CACACA_site5334],8.28 ± 0.4
17,AAAAGTTGTATTTGCACACATAAAAAAAAGATATTA [CACACA_site3840],8.46 ± 0.38
18,AACCCCAAGCCGTACTGTACATATATTTTTATTTTA [XGTACX_site142],9.06 ± 0.69
19,AAATTCAAACAAATTACACACATTTTTTTTTAATTT [CACACA_site3596],8.71 ± 0.47
20,AAAAAAAAAAAAAAATGTACATATATATTTATATAT [XGTACX_site229],8.28 ± 0.18
21,TCAAAGGAATTTTTATGTACATATAAACTTTATTCT [XGTACX_site3432],8.59 ± 0.45
22,TATTATTCTACTATTATATTCTATATTATTTATAGT [CACACA_negctrl_site499],8.44 ± 0.39
